The record followed here is paper PMC4132728.

Chains of the proteins cited; added tags and fusions are not shown.
UniProt Q86US8: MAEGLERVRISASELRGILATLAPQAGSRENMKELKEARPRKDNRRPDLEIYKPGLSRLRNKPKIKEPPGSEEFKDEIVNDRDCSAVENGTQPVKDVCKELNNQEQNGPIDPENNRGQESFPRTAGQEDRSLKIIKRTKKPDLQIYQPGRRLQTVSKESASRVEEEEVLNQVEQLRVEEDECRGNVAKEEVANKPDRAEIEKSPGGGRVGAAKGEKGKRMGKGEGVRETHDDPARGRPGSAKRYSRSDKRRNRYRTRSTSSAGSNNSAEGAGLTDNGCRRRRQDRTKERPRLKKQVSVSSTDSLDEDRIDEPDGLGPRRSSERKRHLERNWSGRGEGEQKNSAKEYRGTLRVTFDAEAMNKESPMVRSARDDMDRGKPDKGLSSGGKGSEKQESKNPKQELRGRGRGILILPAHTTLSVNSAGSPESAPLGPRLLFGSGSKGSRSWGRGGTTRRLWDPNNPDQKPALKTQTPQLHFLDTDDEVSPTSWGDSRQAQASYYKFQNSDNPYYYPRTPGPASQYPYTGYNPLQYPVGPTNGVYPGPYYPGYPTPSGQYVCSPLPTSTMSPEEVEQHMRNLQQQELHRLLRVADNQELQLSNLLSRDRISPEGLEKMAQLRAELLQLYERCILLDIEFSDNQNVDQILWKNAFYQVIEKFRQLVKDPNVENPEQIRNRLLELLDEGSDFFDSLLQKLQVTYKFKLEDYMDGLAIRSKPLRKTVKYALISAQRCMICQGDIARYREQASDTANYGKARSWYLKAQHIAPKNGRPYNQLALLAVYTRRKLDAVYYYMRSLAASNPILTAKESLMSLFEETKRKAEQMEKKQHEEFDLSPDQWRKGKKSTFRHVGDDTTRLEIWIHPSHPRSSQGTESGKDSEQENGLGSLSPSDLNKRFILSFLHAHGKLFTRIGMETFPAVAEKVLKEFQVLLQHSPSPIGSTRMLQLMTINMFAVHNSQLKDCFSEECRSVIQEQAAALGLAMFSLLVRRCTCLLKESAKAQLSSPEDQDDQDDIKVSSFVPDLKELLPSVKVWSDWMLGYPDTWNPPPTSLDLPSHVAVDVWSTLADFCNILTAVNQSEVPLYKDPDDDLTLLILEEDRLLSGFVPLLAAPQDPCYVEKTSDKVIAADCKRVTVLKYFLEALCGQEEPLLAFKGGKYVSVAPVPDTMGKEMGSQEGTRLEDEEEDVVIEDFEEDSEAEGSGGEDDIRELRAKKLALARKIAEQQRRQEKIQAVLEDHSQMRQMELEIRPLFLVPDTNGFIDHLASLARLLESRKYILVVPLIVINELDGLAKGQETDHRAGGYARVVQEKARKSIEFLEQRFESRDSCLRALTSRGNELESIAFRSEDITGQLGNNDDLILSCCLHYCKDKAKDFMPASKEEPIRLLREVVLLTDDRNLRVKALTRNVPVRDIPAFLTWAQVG
UniProt Q04637: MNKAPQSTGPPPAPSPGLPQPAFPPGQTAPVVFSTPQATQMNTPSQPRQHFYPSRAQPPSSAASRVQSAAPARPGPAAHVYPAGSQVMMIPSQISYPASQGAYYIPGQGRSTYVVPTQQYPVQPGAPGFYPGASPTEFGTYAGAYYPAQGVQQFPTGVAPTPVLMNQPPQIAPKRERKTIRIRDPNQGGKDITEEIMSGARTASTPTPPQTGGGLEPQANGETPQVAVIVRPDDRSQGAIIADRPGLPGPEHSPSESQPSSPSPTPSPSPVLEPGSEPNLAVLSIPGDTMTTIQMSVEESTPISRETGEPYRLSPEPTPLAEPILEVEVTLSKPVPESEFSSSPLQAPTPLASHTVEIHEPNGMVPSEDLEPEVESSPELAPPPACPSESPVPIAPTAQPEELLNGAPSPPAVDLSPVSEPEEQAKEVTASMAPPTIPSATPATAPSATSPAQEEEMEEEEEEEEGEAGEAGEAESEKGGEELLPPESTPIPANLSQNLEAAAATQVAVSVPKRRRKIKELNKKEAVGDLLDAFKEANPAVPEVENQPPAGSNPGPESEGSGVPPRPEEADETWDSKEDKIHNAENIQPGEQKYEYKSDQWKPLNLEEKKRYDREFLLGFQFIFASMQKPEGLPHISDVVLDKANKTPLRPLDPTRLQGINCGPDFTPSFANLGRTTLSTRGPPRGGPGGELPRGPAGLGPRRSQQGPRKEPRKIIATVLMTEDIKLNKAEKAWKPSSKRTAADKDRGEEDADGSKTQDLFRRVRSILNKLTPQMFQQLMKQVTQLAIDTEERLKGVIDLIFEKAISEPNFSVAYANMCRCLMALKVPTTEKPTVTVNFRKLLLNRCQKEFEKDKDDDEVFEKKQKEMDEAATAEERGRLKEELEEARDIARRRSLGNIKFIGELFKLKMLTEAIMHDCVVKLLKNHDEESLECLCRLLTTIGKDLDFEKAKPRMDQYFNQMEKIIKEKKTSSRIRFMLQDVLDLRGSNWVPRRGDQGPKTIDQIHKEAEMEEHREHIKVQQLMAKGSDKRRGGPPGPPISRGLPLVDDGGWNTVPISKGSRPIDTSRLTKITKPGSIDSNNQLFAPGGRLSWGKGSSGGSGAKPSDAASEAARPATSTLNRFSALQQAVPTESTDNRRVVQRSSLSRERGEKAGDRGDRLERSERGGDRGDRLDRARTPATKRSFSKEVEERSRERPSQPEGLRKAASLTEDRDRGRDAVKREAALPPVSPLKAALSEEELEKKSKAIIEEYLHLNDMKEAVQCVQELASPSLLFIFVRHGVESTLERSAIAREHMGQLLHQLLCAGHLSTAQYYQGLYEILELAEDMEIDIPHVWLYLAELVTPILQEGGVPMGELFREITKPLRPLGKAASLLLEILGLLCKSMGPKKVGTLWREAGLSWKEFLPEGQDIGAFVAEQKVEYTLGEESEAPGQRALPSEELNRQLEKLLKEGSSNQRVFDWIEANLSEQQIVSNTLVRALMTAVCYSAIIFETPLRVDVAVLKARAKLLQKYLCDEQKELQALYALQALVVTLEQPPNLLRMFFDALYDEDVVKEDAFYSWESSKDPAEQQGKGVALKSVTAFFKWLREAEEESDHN

These are yes or no findings as the source states them, for the method shown. Binding seen in cells or lysates may run through a third protein. Some entries that bind do so weakly or less than the wild type. For some of these results: Where a sequence is shown, tags or fusion partners need not be part of it.

The target in test [1] is FLAG-SLBP (UniProt Q14493). Description: co-IP; IP of FLAG-SLBP with α-FLAG agarose from HEK293T cells co-expressing Myc-PNRC2; extracts treated with RNase A; cells untreated or treated with 5 mM HU for 20 min; control or UPF1 siRNA.
In test [2] the target is T1, CBP80/20-dependent translation initiation factor (CTIF), endogenous (human (endogenous in HEK293T and HeLa)) (UniProt O43310).
T1 sequence: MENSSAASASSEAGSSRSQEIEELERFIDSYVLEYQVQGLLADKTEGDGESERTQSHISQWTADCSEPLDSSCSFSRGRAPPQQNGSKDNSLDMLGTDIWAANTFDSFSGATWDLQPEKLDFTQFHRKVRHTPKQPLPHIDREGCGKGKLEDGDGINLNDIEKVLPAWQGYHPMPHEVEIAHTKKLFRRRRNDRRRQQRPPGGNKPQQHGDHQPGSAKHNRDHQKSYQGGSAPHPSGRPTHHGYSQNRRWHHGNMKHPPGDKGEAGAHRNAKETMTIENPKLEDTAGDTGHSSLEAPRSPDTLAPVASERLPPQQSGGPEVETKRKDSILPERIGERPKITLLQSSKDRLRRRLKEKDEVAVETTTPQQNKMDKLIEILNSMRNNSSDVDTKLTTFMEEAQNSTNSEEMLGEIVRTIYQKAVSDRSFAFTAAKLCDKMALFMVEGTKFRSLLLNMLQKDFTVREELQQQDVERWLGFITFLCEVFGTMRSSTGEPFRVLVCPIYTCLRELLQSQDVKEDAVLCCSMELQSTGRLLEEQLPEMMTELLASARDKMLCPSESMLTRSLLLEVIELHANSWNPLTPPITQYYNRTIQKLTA
Description: co-IP; IP of endogenous CTIF with α-CTIF antibody (control rabbit IgG) from HEK293T total-cell extracts; cells untreated or treated with 5 mM HU for 20 min; NET-2 buffer (50 mM Tris-HCl pH 7.4, 150 mM NaCl, 0.05% NP-40).

For the next test, the target named is GST-SLBP(1–127) (UniProt Q14493). As to the kind of experiment: pull-down; GST pull-down: E. coli lysates with GST or GST-SLBP(1–127) mixed with purified His-UPF1(295–914) and increasing amounts of purified His-CTIF(365–598); bRIP1 added to equalise total protein; blots with α-GST and α-6xHis; only the binder purified.
For test [3], the target named is FLAG-SLBP (UniProt Q14493). As to the kind of experiment: co-IP; IP of FLAG-SLBP with α-FLAG agarose from HeLa cells transfected with increasing amounts of plasmid for Myc-UPF1-WT or -HP.

Take “SMG6, endogenous (from UniProt Q86US8 1-1419)”: the binding result in the test with FLAG-SLBP [1] was “no binding”.
For “eIF4GI, endogenous (from UniProt Q04637 1-1599)”, in test [2], the binding result was “no binding”.

B1: His-CTIF(365–598) (domain or fragment, UniProt O43310 365-598)
chain: TTPQQNKMDKLIEILNSMRNNSSDVDTKLTTFMEEAQNSTNSEEMLGEIVRTIYQKAVSDRSFAFTAAKLCDKMALFMVEGTKFRSLLLNMLQKDFTVREELQQQDVERWLGFITFLCEVFGTMRSSTGEPFRVLVCPIYTCLRELLQSQDVKEDAVLCCSMELQSTGRLLEEQLPEMMTELLASARDKMLCPSESMLTRSLLLEVIELHANSWNPLTPPITQYYNRTIQKLTA
Turning to B1, the binding entry with GST-SLBP(1–127) is given as “binds”.

B2: SMG7, endogenous (protein, UniProt Q92540 1-1137)
chain: MSLQSAQYLRQAEVLKADMTDSKLGPAEVWTSRQALQDLYQKMLVTDLEYALDKKVEQDLWNHAFKNQITTLQGQAKNRANPNRSEVQANLSLFLEAASGFYTQLLQELCTVFNVDLPCRVKSSQLGIISNKQTHTSAIVKPQSSSCSYICQHCLVHLGDIARYRNQTSQAESYYRHAAQLVPSNGQPYNQLAILASSKGDHLTTIFYYCRSIAVKFPFPAASTNLQKALSKALESRDEVKTKWGVSDFIKAFIKFHGHVYLSKSLEKLSPLREKLEEQFKRLLFQKAFNSQQLVHVTVINLFQLHHLRDFSNETEQHTYSQDEQLCWTQLLALFMSFLGILCKCPLQNESQEESYNAYPLPAVKVSMDWLRLRPRVFQEAVVDERQYIWPWLISLLNSFHPHEEDLSSISATPLPEEFELQGFLALRPSFRNLDFSKGHQGITGDKEGQQRRIRQQRLISIGKWIADNQPRLIQCENEVGKLLFITEIPELILEDPSEAKENLILQETSVIESLAADGSPGLKSVLSTSRNLSNNCDTGEKPVVTFKENIKTREVNRDQGRSFPPKEVRRDYSKGITVTKNDGKKDNNKRKTETKKCTLEKLQETGKQNVAVQVKSQTELRKTPVSEARKTPVTQTPTQASNSQFIPIHHPGAFPPLPSRPGFPPPTYVIPPPVAFSMGSGYTFPAGVSVPGTFLQPTAHSPAGNQVQAGKQSHIPYSQQRPSGPGPMNQGPQQSQPPSQQPLTSLPAQPTAQSTSQLQVQALTQQQQSPTKAVPALGKSPPHHSGFQQYQQADASKQLWNPPQVQGPLGKIMPVKQPYYLQTQDPIKLFEPSLQPPVMQQQPLEKKMKPFPMEPYNHNPSEVKVPEFYWDSSYSMADNRSVMAQQANIDRRGKRSPGVFRPEQDPVPRMPFEKSLLEKPSELMSHSSSFLSLTGFSLNQERYPNNSMFNEVYGKNLTSSSKAELSPSMAPQETSLYSLFEGTPWSPSLPASSDHSTPASQSPHSSNPSSLPSSPPTHNHNSVPFSNFGPIGTPDNRDRRTADRWKTDKPAMGGFGIDYLSATSSSESSWHQASTPSGTWTGHGPSMEDSSAVLMESLKSIWSSSMMHPGPSALEQLLMQQKQKQQRGQGTMNPPH
On to B2, for which the binding result in the test with FLAG-SLBP [1] is listed as “no binding”.

B3: His-UPF1(295–914) (domain or fragment, UniProt Q92900-2 295-914)
chain: RYEDAYQYQNIFGPLVKLEADYDKKLKESQTQDNITVRWDLGLNKKRIAYFTLPKTDSDMRLMQGDEICLRYKGDLAPLWKGIGHVIKVPDNYGDEIAIELRSSVGAPVEVTHNFQVDFVWKSTSFDRMQSALKTFAVDETSVSGYIYHKLLGHEVEDVIIKCQLPKRFTAQGLPDLNHSQVYAVKTVLQRPLSLIQGPPGTGKTVTSATIVYHLARQGNGPVLVCAPSNIAVDQLTEKIHQTGLKVVRLCAKSREAIDSPVSFLALHNQIRNMDSMPELQKLQQLKDETGELSSADEKRYRALKRTAERELLMNADVICCTCVGAGDPRLAKMQFRSILIDESTQATEPECMVPVVLGAKQLILVGDHCQLGPVVMCKKAAKAGLSQSLFERLVVLGIRPIRLQVQYRMHPALSAFPSNIFYEGSLQNGVTAADRVKKGFDFQWPQPDKPMFFYVTQGQEEIASSGTSYLNRTEAANVEKITTKLLKAGAKPDQIGIITPYEGQRSYLVQYMQFSGSLHTKLYQEVEIASVDAFQGREKDFIILSCVRANEHQGIGFLNDPRRLNVALTRARYGVIIVGNPKALSKQPLWNHLLNYYKEQKVLVEGPLNNLRESLMQFS
Regarding B3, the binding entry with GST-SLBP(1–127) is on record as “binds”.

B4: Myc-UPF1-WT (protein, UniProt Q92900-2 1-1118)
chain: MSVEAYGPSSQTLTFLDTEEAELLGADTQGSEFEFTDFTLPSQTQTPPGGPGGPGGGGAGGPGGAGAGAAAGQLDAQVGPEGILQNGAVDDSVAKTSQLLAELNFEEDEEDTYYTKDLPIHACSYCGIHDPACVVYCNTSKKWFCNGRGNTSGSHIVNHLVRAKCKEVTLHKDGPLGETVLECYNCGCRNVFLLGFIPAKADSVVVLLCRQPCASQSSLKDINWDSSQWQPLIQDRCFLSWLVKIPSEQEQLRARQITAQQINKLEELWKENPSATLEDLEKPGVDEEPQHVLLRYEDAYQYQNIFGPLVKLEADYDKKLKESQTQDNITVRWDLGLNKKRIAYFTLPKTDSDMRLMQGDEICLRYKGDLAPLWKGIGHVIKVPDNYGDEIAIELRSSVGAPVEVTHNFQVDFVWKSTSFDRMQSALKTFAVDETSVSGYIYHKLLGHEVEDVIIKCQLPKRFTAQGLPDLNHSQVYAVKTVLQRPLSLIQGPPGTGKTVTSATIVYHLARQGNGPVLVCAPSNIAVDQLTEKIHQTGLKVVRLCAKSREAIDSPVSFLALHNQIRNMDSMPELQKLQQLKDETGELSSADEKRYRALKRTAERELLMNADVICCTCVGAGDPRLAKMQFRSILIDESTQATEPECMVPVVLGAKQLILVGDHCQLGPVVMCKKAAKAGLSQSLFERLVVLGIRPIRLQVQYRMHPALSAFPSNIFYEGSLQNGVTAADRVKKGFDFQWPQPDKPMFFYVTQGQEEIASSGTSYLNRTEAANVEKITTKLLKAGAKPDQIGIITPYEGQRSYLVQYMQFSGSLHTKLYQEVEIASVDAFQGREKDFIILSCVRANEHQGIGFLNDPRRLNVALTRARYGVIIVGNPKALSKQPLWNHLLNYYKEQKVLVEGPLNNLRESLMQFSKPRKLVNTINPGARFMTTAMYDAREAIIPGSVYDRSSQGRPSSMYFQTHDQIGMISAGPSHVAAMNIPIPFNLVMPPMPPPGYFGQANGPAAGRGTPKGKTGRGGRQKNRFGLPGPSQTNLPNSQASQDVASQPFSQGALTQGYISMSQPSQMSQPGLSQPELSQDSYLGDEFKSQIDVALSQDSTYQGERAYQHGGVTGLSQY
As for B4, the binding entry with FLAG-SLBP [3] is given as “binds”.

B5: Myc-UPF1-HP (protein, UniProt Q92900-2 1-1118)
chain: MSVEAYGPSSQTLTFLDTEEAELLGADTQGSEFEFTDFTLPSQTQTPPGGPGGPGGGGAGGPGGAGAGAAAGQLDAQVGPEGILQNGAVDDSVAKTSQLLAELNFEEDEEDTYYTKDLPIHACSYCGIHDPACVVYCNTSKKWFCNGRGNTSGSHIVNHLVRAKCKEVTLHKDGPLGETVLECYNCGCRNVFLLGFIPAKADSVVVLLCRQPCASQSSLKDINWDSSQWQPLIQDRCFLSWLVKIPSEQEQLRARQITAQQINKLEELWKENPSATLEDLEKPGVDEEPQHVLLRYEDAYQYQNIFGPLVKLEADYDKKLKESQTQDNITVRWDLGLNKKRIAYFTLPKTDSDMRLMQGDEICLRYKGDLAPLWKGIGHVIKVPDNYGDEIAIELRSSVGAPVEVTHNFQVDFVWKSTSFDRMQSALKTFAVDETSVSGYIYHKLLGHEVEDVIIKCQLPKRFTAQGLPDLNHSQVYAVKTVLQRPLSLIQGPPRTEKTVTSATIVYHLARQGNGPVLVCAPSNIAVDQLTEKIHQTGLKVVRLCAKSREAIDSPVSFLALHNQIRNMDSMPELQKLQQLKDETGELSSADEKRYRALKRTAERELLMNADVICCTCVGAGDPRLAKMQFRSILIDESTQATEPECMVPVVLGAKQLILVGDHCQLGPVVMCKKAAKAGLSQSLFERLVVLGIRPIRLQVQYRMHPALSAFPSNIFYEGSLQNGVTAADRVKKGFDFQWPQPDKPMFFYVTQGQEEIASSGTSYLNRTEAANVEKITTKLLKAGAKPDQIGIITPYEGQRSYLVQYMQFSGSLHTKLYQEVEIASVDAFQGREKDFIILSCVRANEHQGIGFLNDPRRLNVALTRARYGVIIVGNPKALSKQPLWNHLLNYYKEQKVLVEGPLNNLRESLMQFSKPRKLVNTINPGARFMTTAMYDAREAIIPGSVYDRSSQGRPSSMYFQTHDQIGMISAGPSHVAAMNIPIPFNLVMPPMPPPGYFGQANGPAAGRGTPKGKTGRGGRQKNRFGLPGPSQTNLPNSQASQDVASQPFSQGALTQGYISMSQPSQMSQPGLSQPELSQDSYLGDEFKSQIDVALSQDSTYQGERAYQHGGVTGLSQY
Take B5: the binding entry with FLAG-SLBP [3] is on record as “binds”.
